Experimental findings from the supplement of paper PMC8728848 are described below.

What all share (assay): glycan array binding signal (z-score within array); higher = stronger binding
Common to all, as to settings: glycan notation: IUPAC condensed, linker removed

The target of assay [1] is Gal(b1-4)GlcNAc(b1-3)Gal(b1-4)GlcNAc(b1-3)Gal(b1-4)GlcNAc(b1-3)Gal(b1-4)GlcNAc(b1-2)Man(a1-3)[Gal(b1-4)GlcNAc(b1-3)Gal(b1-4)GlcNAc(b1-3)Gal(b1-4)GlcNAc(b1-3)Gal(b1-4)GlcNAc(b1-2)Man(a1-6)]Man(b1-4)GlcNAc(b1-4)GlcNAc. The method in brief:
(§1)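 The binding signal is a Z-score computed within each array. Data were drawn from 3228 arrays in the Consortium for Functional Glycomics database, restricted to those with a known protein sequence. Scores were averaged over arrays of the same protein sequence at different concentrations or buffers, and over linkers, and negative values can be taken as non-binding.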

Assay [2] has as its target Gal(b1-4)GlcNAc(b1-3)Gal(b1-4)GlcNAc(b1-3)Gal(b1-4)GlcNAc(b1-3)Gal(b1-4)GlcNAc(b1-2)Man(a1-3)[Gal(b1-4)GlcNAc(b1-3)Gal(b1-4)GlcNAc(b1-3)Gal(b1-4)GlcNAc(b1-3)Gal(b1-4)GlcNAc(b1-2)Man(a1-6)]Man(b1-4)GlcNAc(b1-4)[Fuc(a1-6)]GlcNAc. The method in brief:
as §1

Assay [3] concerns the target Gal(b1-4)GlcNAc(b1-3)Gal(b1-4)GlcNAc(b1-3)Gal(b1-4)GlcNAc(b1-3)Gal(b1-4)GlcNAc(b1-2)[Gal(b1-4)GlcNAc(b1-3)Gal(b1-4)GlcNAc(b1-3)Gal(b1-4)GlcNAc(b1-3)Gal(b1-4)GlcNAc(b1-6)]Man(a1-6)[Gal(b1-4)GlcNAc(b1-3)Gal(b1-4)GlcNAc(b1-3)Gal(b1-4)GlcNAc(b1-3)Gal(b1-4)GlcNAc(b1-2)Man(a1-3)]Man(b1-4)GlcNAc(b1-4)[Fuc(a1-6)]GlcNAc. The method in brief:
as §1

Assay [4] deals with Gal(b1-4)GlcNAc(b1-3)Gal(b1-4)GlcNAc(b1-3)Gal(b1-4)GlcNAc(b1-3)Gal(b1-4)GlcNAc(b1-3)Gal(b1-4)GlcNAc(b1-2)Man(a1-3)[Gal(b1-4)GlcNAc(b1-3)Gal(b1-4)GlcNAc(b1-3)Gal(b1-4)GlcNAc(b1-3)Gal(b1-4)GlcNAc(b1-3)Gal(b1-4)GlcNAc(b1-2)Man(a1-6)]Man(b1-4)GlcNAc(b1-4)GlcNAc. An outline of the steps: as §1
The target of assay [5] is Gal(b1-4)GlcNAc(b1-3)Gal(b1-4)GlcNAc(b1-3)Gal(b1-4)GlcNAc(b1-3)Gal(b1-4)GlcNAc(b1-3)Gal(b1-4)GlcNAc(b1-2)Man(a1-3)[Gal(b1-4)GlcNAc(b1-3)Gal(b1-4)GlcNAc(b1-3)Gal(b1-4)GlcNAc(b1-3)Gal(b1-4)GlcNAc(b1-3)Gal(b1-4)GlcNAc(b1-2)Man(a1-6)]Man(b1-4)GlcNAc(b1-4)[Fuc(a1-6)]GlcNAc. The method in brief:
as §1

In assay [6] the target is Gal(b1-4)GlcNAc(b1-3)Gal(b1-4)GlcNAc(b1-3)Gal(b1-4)GlcNAc(b1-3)Gal(b1-4)GlcNAc(b1-3)Gal(b1-4)GlcNAc(b1-2)[Gal(b1-4)GlcNAc(b1-3)Gal(b1-4)GlcNAc(b1-3)Gal(b1-4)GlcNAc(b1-3)Gal(b1-4)GlcNAc(b1-3)Gal(b1-4)GlcNAc(b1-6)]Man(a1-6)[Gal(b1-4)GlcNAc(b1-3)Gal(b1-4)GlcNAc(b1-3)Gal(b1-4)GlcNAc(b1-3)Gal(b1-4)GlcNAc(b1-3)Gal(b1-4)GlcNAc(b1-2)Man(a1-3)]Man(b1-4)GlcNAc(b1-4)[Fuc(a1-6)]GlcNAc. The method in brief: as §1

Assay [7] deals with Gal(b1-4)GlcNAc(b1-3)Gal(b1-4)GlcNAc(b1-3)Gal(b1-4)GlcNAc(b1-3)Gal(b1-4)GlcNAc(b1-3)Gal(b1-4)GlcNAc(b1-3)Gal(b1-4)GlcNAc(b1-2)Man(a1-3)[Gal(b1-4)GlcNAc(b1-3)Gal(b1-4)GlcNAc(b1-3)Gal(b1-4)GlcNAc(b1-3)Gal(b1-4)GlcNAc(b1-3)Gal(b1-4)GlcNAc(b1-3)Gal(b1-4)GlcNAc(b1-2)Man(a1-6)]Man(b1-4)GlcNAc(b1-4)GlcNAc. An outline of the steps:
as §1

The target in assay [8] is Gal(b1-4)GlcNAc(b1-3)Gal(b1-4)GlcNAc(b1-3)GalNAc. The method in brief: as §1
The target of assay [9] is Gal(b1-4)GlcNAc(b1-3)Gal(b1-4)GlcNAc(b1-3)[Gal(b1-4)GlcNAc(b1-3)Gal(b1-4)GlcNAc(b1-6)]GalNAc. An outline of the steps: as §1
Assay [10] addresses Gal(b1-4)GlcNAc(b1-3)Gal(b1-4)GlcNAc(b1-6)[Gal(b1-3)]GalNAc. The method in brief: as §1
Assay [11] deals with Gal(b1-4)GlcNAc(b1-3)Gal(b1-4)[Fuc(a1-3)]GlcNAc(b1-3)Gal(b1-4)[Fuc(a1-3)]GlcNAc. An outline of the steps: as §1
Assay [12] concerns the target Gal(b1-4)GlcNAc(b1-3)GalNAc. The method in brief:
as §1

The target of assay [13] is Gal(b1-4)GlcNAc(b1-3)[Fuc(a1-3)GlcNAc(b1-6)]Gal(b1-4)Glc. The method in brief:
as §1

For assay [14], the target named is Gal(b1-4)GlcNAc(b1-3)[Gal(b1-4)GlcNAc(b1-6)]Gal(b1-4)GlcNAc. An outline of the steps:
as §1

Assay [15] deals with Gal(b1-4)GlcNAc(b1-3)[GlcNAc(b1-6)]Gal(b1-4)GlcNAc. The method in brief: as §1
Assay [16] has as its target Gal(b1-4)GlcNAc(b1-6)Gal(b1-4)GlcNAc. An outline of the steps: as §1
For assay [17], the target named is Gal(b1-4)GlcNAc(b1-6)GalNAc. An outline of the steps: as §1
The target in assay [18] is Gal(b1-4)GlcNAc(b1-6)[Gal(b1-3)]GalNAc. The method in brief:
as §1

The target of assay [19] is Gal(b1-4)GlcNAc(b1-6)[Gal(b1-4)GlcNAc(b1-3)]GalNAc. The method in brief: as §1
For a further assay, the target named is Gal(b1-4)GlcNAc6P. An outline of the steps: as §1
In another assay the target is Gal(b1-6)Gal. The method in brief:
as §1

Another assay deals with Gal3S(b1-3)GalNAc. An outline of the steps:
as §1

For another assay, the target named is Gal3S(b1-3)GlcNAc. The method in brief: as §1

Some of the results follow.

B1: CrataBL (Crataeva tapia), C0HJA4 (protein)
chain: AILTGVPYYILPSTSRAGFSPDNLRKNTSQLSCPLDLITQLRFPRRIGVPVIFTPQNSSLKVVPLSHNLNIHTCSDLWFCPESKIWTVKSSLTHGGSVVTTGGTFRSLGSWFRIERHGDSYKLVHCPRGSTPCRDVGIETVGGGGRRYLAPRDRPLAVRFTRASG
As to B1, the “glycan array binding signal (z-score)” value in assay [1] is -0.288; in [2], -0.237; in assay [3], -0.183; in assay [4], -0.247; in assay [5], -0.276; in assay [6] it was -0.04. Further, the “glycan array binding signal (z-score)” value is -0.135 in assay [7]; 0.729 in assay [8]; 1.35 in assay [9]; 0.506 in assay [10]; -0.446 in [11]; -0.429 in assay [12]. The “glycan array binding signal (z-score)” value is -0.194 in [13]; -0.379 in [14]; -0.512 in [15]; -0.426 in assay [16]; 0.211 in [17]; 0.018 in [18]. Also, the “glycan array binding signal (z-score)” value is -0.237 in [19]; 0.876 with Gal(b1-4)GlcNAc6P; -0.084 with Gal(b1-6)Gal; -0.068 with Gal3S(b1-3)GalNAc; -0.002 in the assay with Gal3S(b1-3)GlcNAc.
